From the supplement of paper PMC10126150 come the findings set out here.

In the data set the test system is ATP. Put plainly: switch fluorescence ratio, 500 uM ATP over buffer (Cy3 cluster intensity, sum of 5 cycles each) (fold (ratio)); higher = stronger signal-on switching upon ATP binding; sequences stand for … in TCGTCGGCAGCGTCAGATGTGTATAAGAGACAGTTTTTTTTTTTTTTTTTTTTTTTTT…TC. The note with it: aptamer strand: ATP DNA aptamer (quencher-CACCTGGGGGAGTATTGCGGAGGAAGG + anchor), 100 nM annealed; ATP concentration: 500 uM; one replicate. A digest of the protocol: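 The quencher-labelled ATP aptamer, at 100 nM, was annealed to Cy3-labelled switching-strand clusters on a modified Illumina MiSeq flow-cell. The clusters were imaged in selection buffer, then after 15 min with 500 uM ATP at 22 °C, and this buffer/ATP cycle ran five times with NaOH stripping and re-annealing between runs. Per-cluster fluorescence ratios, summed target-cycle over summed buffer-cycle Cy3 intensity, were averaged per switch-domain sequence. Clusters outside 100-1000 RFU were excluded.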

Values marked as one replicate rest on one cluster of the flow cell; about a third of the high ones do not repeat.
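Note: ATP exposure 15 min at 22 °C before imaging.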

Regarding GGAAGCTGAT, the switch fluorescence ratio came to 0.992.
In the case of GGGAGACAAT it was 0.979.
For the sequence CGCATCCCGA, the switch fluorescence ratio came out at 1.14.
TTCTGAGTTA: the switch fluorescence ratio is 1.
In the case of CGATGAAGCT it was 0.976.
In the case of TTCCCCTGGT it was 0.993.
In the case of AACTTGCCGA it was 1; in that of ACCTACGTCT, 1.14.
Turning to TTGTGAGGTA, the switch fluorescence ratio was found to be 0.986.
The same measure for ATGGTTGGTG: 1.13.
In the case of TAAGTGTAGG it was 1.08.
In the case of CTACGTCAGA it was 1.28; in that of GCGTGGGTAG, 1.03.
With CTCGAGGCTC, the switch fluorescence ratio amounted to 0.994.
The same measure for CACTTTCGTC: 1.03; for GACCCCCGTA: 1.09; for CGAGCGCGAG: 0.991.
In the case of CATAGAGGTT it was 0.962; in that of TTGTTTGTC, 1.04; in that of GAGATCGTAG, 1.08.
The same measure for TTCAACCTG: 1.04; for ACAAAAACTA: 1.06.
As for TATCTCGGCA, the switch fluorescence ratio was 1.12.
For AGGTTCCCGA, the switch fluorescence ratio was found to be 0.985.
In the case of AGAGTACGTC it was 0.986; in that of ACGGCTTTCT, 0.976.
In the case of GTGATCCTCG it was 1.02.
The same measure for AAATGACGCG: 1.22.
For the sequence TAGGGGCGGT, the switch fluorescence ratio was 0.977.
The same measure for CATGCAACTT: 1.04; for TCGCTGGCTA: 0.999.
For the sequence CCCCTGAGGC, the switch fluorescence ratio amounted to 1.06.
In the case of TCTCCACTCG it was 1.17.
In the case of CGTAGTTCCA it was 0.995; in that of GGGTCTTATA, 0.971; in that of AGTGCATGGG, 0.984.
As for TCATACTGTT, the switch fluorescence ratio is 0.979.
As for ATAAAACTGT, the switch fluorescence ratio stood at 0.981.
The same measure for CAATGTGAAT: 0.943; for CAGGACTGCT: 1.
The same measure for TTTTCCCCGA: 1.22.
In the case of TTATTCCAGC it was 1.02; in that of TCAGAATTAG, 1.02.
Consider CAGCGAGCAC, for which the switch fluorescence ratio turned out to be 1.31.
In the case of ACGTAACTTT it was 1.26; in that of TTAGCGGAGC, 0.989.
In the case of CGAACAGAGG, the switch fluorescence ratio was determined as 0.971.
In the case of GATTTGCTAT it was 1.05; in that of GGCGACAGGG, 0.997.
The same measure for TTGATGTATA: 1.01; for CTGCTGATGT: 1.02.
In the case of CTGAGTTGCC it was 1.02; in that of AATTTAATGT, 1.02.
As for GGGAGAAGGC, the switch fluorescence ratio amounted to 0.975.
As to TTAGAGGACA, the switch fluorescence ratio turned out to be 1.01.
In the case of TGCCAGAGGA it was 0.97.
With GGCGTCCAAA, the switch fluorescence ratio was found to be 1.01.
In the case of TCCGTGAAGT it was 1.03.
In the case of TAGATATTTG it was 1.02.
In the case of GCTAGAACAA it was 1.02; in that of ACCGGTGCGT, 1.04.
With AAGATGGAGA, the switch fluorescence ratio was found to be 1.04.
The same measure for CTCAACGGAC: 1.41; for ATCACTCAGA: 1.03; for GATGTTATGA: 1.
As to TATACCAGGA, the switch fluorescence ratio was 1.07.
